According to PubChem BioAssay AID624296 (National Center for Advancing Translational Sciences (NCATS), 2012):
The campaign covered roughly 350,000 compounds. About 9,900 (2.8%) were called active. Inconclusive means that the source gave no clear call. Such entries were picked first, then a sample of the others. The call rests on the fitted dose curve; in most records, active means well fitted activation curve with a large enough effect; inconclusive means small, poorly fitted or top-dose-only effect; inactive means no such curve, though single readings can be large or run the other way. No potency is given beside an inconclusive call; the fits are too rough.

assay: A quantitative high throughput screen for small molecules that induce DNA re-replication in MCF 10a normal breast cells.; further: nearly all actives have a fitted effect of over 50% in size; on activity, positive = re-replication: % of control where 0% means no effect; conditions: MCF 10A DNA re-replication, Hoechst nuclear intensity, 48 h; activity, positive = re-replication: at 46.1 µM (top of the series)
Potency means the concentration at half of the fitted maximal effect; tags describe the fitted curve by direction and shape.

SMILES	activity, positive = re-replication	Potency
Cc1ccc(C(=O)NCCCNC(=O)c2ccccc2C)cn1	inactive: -0.646%	
NC(=O)c1ccsc1NC(=O)COC(=O)c1ccc(Cl)cc1	inactive: 6.63%	
CCN(CC)CCOc1ccc(C(O)(Cc2ccc(Cl)cc2)c2ccc(C)cc2)cc1 (centres undefined)		active: 9.44 µM
O=C1/C(=C/c2ccncc2)SC(=S)N1Cc1ccccc1		inconclusive [activator, single point]
O=C(NNC(=O)c1cc(-c2ccncc2)nc2ccccc12)c1ccccc1O		inconclusive [activator, single point]
O=C(CSc1nc2ccc(NC(=O)CSc3nnnn3-c3ccccc3)cc2s1)Nc1ccccc1		inconclusive [activator, partial curve, poor fit]
COc1ccc(NC(=O)CC2C(=O)NCCN2C(=O)Nc2ccc(C(F)(F)F)cc2)cc1 (centres undefined)	inactive: 5.65%	
Cc1cc2c(cc1C)C(c1cc(Br)ccc1F)CC(=O)N2 (centres undefined)		active: 7.31 µM
CCOc1ccccc1/C=N/NC(=O)Cc1csc(Nc2cccc(C(F)(F)F)c2)n1		inconclusive [activator, partial curve, poor fit]
O=C(CCCn1c(=O)c2cccn2c2cccnc21)NCc1cccc(Br)c1		inconclusive [activator, single point]
CCN(CC)S(=O)(=O)c1cc(NS(=O)(=O)c2cccc(Cl)c2Cl)ccc1C		inconclusive [activator, single point]
CCOC(=O)c1ccc(N2CCCCC2)c(NS(=O)(=O)c2ccc(C)cc2)c1		active: 20.6 µM
Cc1nn(-c2ccccc2)cc1/C=N/NC(=O)c1cccs1		inconclusive [activator, partial curve, poor fit]
NC(=S)N/N=C/c1coc2cc(Br)ccc2c1=O		inconclusive [activator, full curve, poor fit]
Cc1cc(C)c2nc(Nc3nc(-c4ccccc4)cc(=O)[nH]3)nc(C)c2c1		inconclusive [activator, partial curve, poor fit]
CSc1ccc(Cl)c(C(=O)OCC(=O)N2CCN(C(=O)c3ccco3)CC2)c1	inactive: -0.117%	
COc1cc(NC(=O)c2ccc(Br)o2)ccc1NC(=O)c1ccccc1Cl		inconclusive [activator, single point]
CCn1c(C(=O)N2CCCC(C(=O)NCCc3ccc(C)cc3)C2)cc2sccc21 (centres undefined)	inconclusive: -37.2% [activator]	
NC(=S)NNc1ccc(Cl)c(Cl)c1		inconclusive [activator, partial curve, poor fit]
COc1cccc(C(C(=O)NC2CCCC2)N(C(=O)c2ccco2)c2ccc(-n3cnnn3)c(C)c2)c1OC (centres undefined)	inactive: -3.22%	
CCCCN(CC)C(=O)CSc1nc2ccccc2c(=O)n1CC1COc2ccccc2O1 (centres undefined)		inconclusive [activator, partial curve, poor fit]
COC(=O)CCCCCCCCC(O)CN(C)C (centres undefined)		inconclusive [activator, single point]

SMILES	activity, positive = re-replication	Potency
O=C(O)C1CCN(S(=O)(=O)Cc2ccccc2)CC1	inactive: 2.47%	
CC(=O)N1CCN(C(=O)c2ccc(OC3CCN(Cc4ccccn4)CC3)cc2)CC1		inconclusive [activator, partial curve, poor fit]
Cc1ccc(N2C(=O)C3CCC(c4ccccc4)CC3C2=O)cc1 (centres undefined)		inconclusive [activator, single point]
Cc1ccc(NC(=O)c2ccc(N3C(=O)C4CC=C(Cl)CC4C3=O)cc2)cc1 (centres undefined)		inconclusive [activator, partial curve, poor fit]
C=C(C)c1nc(Oc2ccccc2)nc(Oc2ccccc2)n1		active: 4.11 µM
CC(C)NC(=O)Cn1c(=O)c2c(ncn2Cc2ccccc2)n(Cc2ccccc2)c1=O		inconclusive [activator, full curve]
CNc1ccc(/C=C2\CSc3ccccc3C2=O)cc1[N+](=O)[O-]		inconclusive [activator, single point]
CCC1(c2ccc(Cl)cc2)NC(=S)N(c2ccc(C)cc2)N1 (centres undefined)		inconclusive [activator, partial curve, poor fit]
COc1ccc(OC)c(-c2cc(C(=O)N3CCN(c4ncccn4)CC3)c3ccccc3n2)c1	inactive: 1.56%	
COc1ccccc1CN1CCN(Cc2ccco2)CC1		inconclusive [activator, partial curve, poor fit]
Cc1ccc(NC(=O)c2cc(N3C(=O)C4CC=CCC4C3=O)ccc2N2CCCCC2)cc1 (centres undefined)		inconclusive [activator, partial curve, poor fit]
Nc1c(-c2ccccn2)cnn1-c1nc(-c2ccc(F)cc2)cs1		inconclusive [activator, single point]
N=c1n(CCN2CCCC2)c2ccccc2n1CC(O)c1ccc(Cl)c(Cl)c1 (centres undefined)		active: 23.1 µM
CCOCCCn1c(NN)nc2ccccc2c1=O		inconclusive [activator, partial curve, poor fit]
COc1ccc(S(=O)(=O)N2CCOC2CNC(=O)C(=O)NCc2ccccn2)cc1 (centres undefined)	inactive: 11.3%	
CCOC(=O)c1cnc(-n2nc(C)cc2C)nc1NNc1cc(C)nc(-c2ccccc2)n1		inconclusive [activator, full curve, poor fit]
O=C(Nc1ccc2c(c1)OCO2)Nc1ccccc1F	inconclusive: -47.6% [activator]	
CCOC(=O)c1oc2ccccc2c1NC(=O)CCl		inconclusive [activator, single point]
Cc1ccc(C(=O)NCCCNC(=O)c2ccco2)cc1C	inactive: -4.3%	
CCN(CC(=O)Nc1ccccc1C(F)(F)F)C(=O)/C=C/c1ccc(Cl)c([N+](=O)[O-])c1	inactive: 5.19%	
Cc1cnc(NC(=O)CCCSc2nc3ccccc3s2)s1		inconclusive [activator, single point]
COc1ccc(-n2nc(C(=O)NCc3ccco3)c3ccccc3c2=O)cc1		inconclusive [activator, single point]
